This is one part of the list. Most values come without repeats; read them as rough.
Tested on: WM115
Experiment: cell count relative to DMSO control; melanoma cells; higher = more viable cells
Conditions: library dose: standard library concentration; 72 h
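Note: cells treated in 1,536-well plates, then fixed and DAPI-stained, with nuclei counted from automated high-throughput microscope images.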

Question: Which cell count does the source give for `COCC[n+]1c2c(n(Cc3cnccn3)c1C)C(=O)c1ccccc1C2=O` + O=c1cc(-c2cccc3c2Sc2ccccc2S3)oc(N2CCOCC2)c1 [KU55933] (first compound 0.002 µM, partner dose 5 µM) here?
Answer: 74%

Question: With `Nc1cccc2c1CN(C1CCC(=O)NC1=O)C2=O` (centres undefined) [lenalidomide] + O=C(CCCCCCC(=O)Nc1ccccc1)NO [vorinostat] (first compound 5 µM, partner dose 0.4 µM) as the compound, how does the cell count read?
Answer: 59.6%

Question: How did the cell count turn out when `OCc1c[nH]c2ccccc12` [Indole-3-carbinol] + Cc1cc(N2CCOCC2)cc2[nH]c(-c3c(NC[C@@H](O)c4cccc(Cl)c4)cc[nH]c3=O)nc12 [BMS536924] (first compound 4 µM, partner dose 1 µM) was run?
Answer: 93%

Question: For `Clc1ccc(Nc2nnc(Cc3ccncc3)c3ccccc23)cc1` [vatalanib] + NC(=O)Nc1cc(-c2cccc(F)c2)sc1C(=O)N[C@H]1CCCNC1 [AZD7762] (first compound 10 µM, partner dose 0.1 µM), which cell count is on record?
Answer: 79.7%

Tested on: WM1716
Experiment: as above
Conditions: library dose: standard library concentration; 72 h

Question: `O=C(CCCCCCC(=O)Nc1ccccc1)NO` [vorinostat] + O=S(=O)(c1ccccc1)N(CC(F)(F)F)c1ccc(C(O)(C(F)(F)F)C(F)(F)F)cc1 [T0901317] (first compound 0.4 µM, partner dose 7 µM) was tested. Which cell count did it give?
Answer: 93.8%

Question: Which cell count does the source give for `Nc1cccc2c1CN(C1CCC(=O)NC1=O)C2=O` (centres undefined) [lenalidomide] + Cn1cncc1[C@@](N)(c1ccc(Cl)cc1)c1ccc2c(c1)c(-c1cccc(Cl)c1)cc(=O)n2C [tipifarnib] (first compound 5 µM, partner dose 0.05 µM) here?
Answer: 66.3%

Question: With `COCC[n+]1c2c(n(Cc3cnccn3)c1C)C(=O)c1ccccc1C2=O` + Cn1cncc1[C@@](N)(c1ccc(Cl)cc1)c1ccc2c(c1)c(-c1cccc(Cl)c1)cc(=O)n2C [tipifarnib] (first compound 0.002 µM, partner dose 0.05 µM) as the compound, how does the cell count read?
Answer: 59.6%

Question: `Cn1c(Nc2ccc(C(F)(F)F)cc2)nc2cc(Oc3ccnc(-c4ncc(C(F)(F)F)[nH]4)c3)ccc21` + Oc1nc(-c2ccc(C(F)(F)F)cc2)nc2c1CSCC2 [XAV939] (first compound 0.4 µM, partner dose 10 µM) was tested. Which cell count did it give?
Answer: 49.1%

Question: How did the cell count turn out when `Clc1ccc(Nc2nnc(Cc3ccncc3)c3ccccc23)cc1` [vatalanib] + C=CCn1c(=O)c2cnc(Nc3ccc(N4CCN(C)CC4)cc3)nc2n1-c1cccc(C(C)(C)O)n1 [MK1775] (first compound 10 µM, partner dose 0.1 µM) was run?
Answer: 97.9%

Question: How did the cell count turn out when `OCc1c[nH]c2ccccc12` [Indole-3-carbinol] + C[C@@H]1CCN(C(=O)CC#N)C[C@@H]1N(C)c1ncnc2[nH]ccc12 [CP690550] (first compound 4 µM, partner dose 5 µM) was run?
Answer: 97.4%

Question: `Cn1c(Nc2ccc(C(F)(F)F)cc2)nc2cc(Oc3ccnc(-c4ncc(C(F)(F)F)[nH]4)c3)ccc21` + Nc1cccc2c1CN(C1CCC(=O)NC1=O)C2=O [lenalidomide] (first compound 0.4 µM, partner dose 5 µM) was tested. Which cell count did it give?
Answer: 71.5%

Question: With `COCC[n+]1c2c(n(Cc3cnccn3)c1C)C(=O)c1ccccc1C2=O` + O=C(O)C(=O)Nc1sc2c(c1C(=O)O)CCNC2 [TCS401] (first compound 0.002 µM, partner dose 8.33333 µM) as the compound, how does the cell count read?
Answer: 63.9%

Question: How did the cell count turn out when `C#Cc1cccc(Nc2ncnc3cc(OCCOC)c(OCCOC)cc23)c1` [erlotinib] + O=C(Nc1cccc(Cl)c1)Nc1ncc(CCNc2ncnc3ccsc23)s1 [SNS314] (first compound 4 µM, partner dose 0.004 µM) was run?
Answer: 44.2%

Question: For `Cn1c(Nc2ccc(C(F)(F)F)cc2)nc2cc(Oc3ccnc(-c4ncc(C(F)(F)F)[nH]4)c3)ccc21` + COc1ccc2c(c1)CCC1C2CCC2(C)C(NCCCCCCN3C(=O)C=CC3=O)CCC12 [U73122] (first compound 0.4 µM, partner dose 2 µM), which cell count is on record?
Answer: 54.5%

Question: Which cell count does the source give for `Nc1cccc2c1CN(C1CCC(=O)NC1=O)C2=O` (centres undefined) [lenalidomide] + O=S(=O)(c1ccccc1)N(CC(F)(F)F)c1ccc(C(O)(C(F)(F)F)C(F)(F)F)cc1 [T0901317] (first compound 5 µM, partner dose 7 µM) here?
Answer: 83.7%

Question: For `OCc1c[nH]c2ccccc12` [Indole-3-carbinol] + O=C(CCCCCCC(=O)Nc1ccccc1)NO [vorinostat] (first compound 4 µM, partner dose 0.4 µM), which cell count is on record?
Answer: 115%

Question: How did the cell count turn out when `Nc1cccc2c1CN(C1CCC(=O)NC1=O)C2=O` (centres undefined) [lenalidomide] + COc1ccc(COc2ccc(Cc3cnc(N)nc3N)cc2OC)cc1 [GW2580] (first compound 5 µM, partner dose 5 µM) was run?
Answer: 84.4%

Question: How did the cell count turn out when `C#Cc1cccc(Nc2ncnc3cc(OCCOC)c(OCCOC)cc23)c1` [erlotinib] + COc1cc2ncnc(Nc3ccc(Oc4ccccc4)cc3)c2cc1OC [SrcI1] (first compound 4 µM, partner dose 10 µM) was run?
Answer: 76.4%

Question: How did the cell count turn out when `OCc1c[nH]c2ccccc12` [Indole-3-carbinol] + CC1(C)NC(=O)N(c2ccc([N+](=O)[O-])c(C(F)(F)F)c2)C1=O [nilutamide] (first compound 4 µM, partner dose 5 µM) was run?
Answer: 102%

Question: Which cell count does the source give for `OCc1c[nH]c2ccccc12` [Indole-3-carbinol] + CN(NC(=O)CC(=O)NN(C)C(=S)c1ccccc1)C(=S)c1ccccc1 [STA4783] (first compound 4 µM, partner dose 0.03 µM) here?
Answer: 95.1%

Question: For `Clc1ccc(Nc2nnc(Cc3ccncc3)c3ccccc23)cc1` [vatalanib] + Cc1cc(N2CCOCC2)cc2[nH]c(-c3c(NC[C@@H](O)c4cccc(Cl)c4)cc[nH]c3=O)nc12 [BMS536924] (first compound 10 µM, partner dose 1 µM), which cell count is on record?
Answer: 110%

Question: For `O=C(CCCCCCC(=O)Nc1ccccc1)NO` [vorinostat] + O=C(O)C(=O)Nc1sc2c(c1C(=O)O)CCNC2 [TCS401] (first compound 0.4 µM, partner dose 8.33333 µM), which cell count is on record?
Answer: 81.3%

Question: With `Nc1cccc2c1CN(C1CCC(=O)NC1=O)C2=O` (centres undefined) [lenalidomide] + CN(C)S(=O)(=O)c1ccc2c(c1)/C(=C/c1cc3c([nH]1)CCCC3)C(=O)N2 [SU6656] (first compound 5 µM, partner dose 2 µM) as the compound, how does the cell count read?
Answer: 64.6%

Question: For `Nc1cccc2c1CN(C1CCC(=O)NC1=O)C2=O` (centres undefined) [lenalidomide] + COC(=O)c1sccc1S(=O)(=O)Nc1ccc(Nc2ccccc2)cc1OC [GSK0660] (first compound 5 µM, partner dose 5 µM), which cell count is on record?
Answer: 98.6%

Question: Which cell count does the source give for `Nc1cccc2c1CN(C1CCC(=O)NC1=O)C2=O` (centres undefined) [lenalidomide] + N#Cc1c(O)c2c(-c3ccc(-c4ccccc4O)cc3)csc2[nH]c1=O [A769662] (first compound 5 µM, partner dose 10 µM) here?
Answer: 104%

Question: `COCC[n+]1c2c(n(Cc3cnccn3)c1C)C(=O)c1ccccc1C2=O` + COc1ccc(COc2ccc(Cc3cnc(N)nc3N)cc2OC)cc1 [GW2580] (first compound 0.002 µM, partner dose 5 µM) was tested. Which cell count did it give?
Answer: 116%

Question: Which cell count does the source give for `Cn1c(Nc2ccc(C(F)(F)F)cc2)nc2cc(Oc3ccnc(-c4ncc(C(F)(F)F)[nH]4)c3)ccc21` + Cc1cc(N2CCOCC2)cc2[nH]c(-c3c(NC[C@@H](O)c4cccc(Cl)c4)cc[nH]c3=O)nc12 [BMS536924] (first compound 0.4 µM, partner dose 1 µM) here?
Answer: 71.8%

Question: With `COCC[n+]1c2c(n(Cc3cnccn3)c1C)C(=O)c1ccccc1C2=O` + Oc1cc(-c2nc(-c3ccccc3)[nH]c2-c2ccncc2)ccc1Cl [L779450] (first compound 0.002 µM, partner dose 1 µM) as the compound, how does the cell count read?
Answer: 75.4%

Question: How did the cell count turn out when `C#Cc1cccc(Nc2ncnc3cc(OCCOC)c(OCCOC)cc23)c1` [erlotinib] + O=C1NC(=O)/C(=C/c2ccc(-c3ccc(F)cc3O)o2)S1 [AS252424] (first compound 4 µM, partner dose 5 µM) was run?
Answer: 90.5%

Question: Which cell count does the source give for `Cn1c(Nc2ccc(C(F)(F)F)cc2)nc2cc(Oc3ccnc(-c4ncc(C(F)(F)F)[nH]4)c3)ccc21` + NCC(=O)Nc1ccc(-n2nc(C(F)(F)F)cc2-c2ccc3c(ccc4ccccc43)c2)cc1 [OSU03012] (first compound 0.4 µM, partner dose 5 µM) here?
Answer: 58.6%

Question: Which cell count does the source give for `C#Cc1cccc(Nc2ncnc3cc(OCCOC)c(OCCOC)cc23)c1` [erlotinib] + COc1ccc2c(c1)CCC1C2CCC2(C)C(NCCCCCCN3C(=O)C=CC3=O)CCC12 [U73122] (first compound 4 µM, partner dose 2 µM) here?
Answer: 75.4%

Question: How did the cell count turn out when `Clc1ccc(Nc2nnc(Cc3ccncc3)c3ccccc23)cc1` [vatalanib] + OCCn1cc(-c2cnc3nnn(Cc4ccc5ncccc5c4)c3n2)cn1 [PF04217903] (first compound 10 µM, partner dose 5 µM) was run?
Answer: 69.7%

Question: For `Nc1cccc2c1CN(C1CCC(=O)NC1=O)C2=O` (centres undefined) [lenalidomide] + COc1ccc(-c2ccc3c(N4CCOCC4)nc(N4C[C@@H](C)O[C@@H](C)C4)nc3n2)cc1CO [KU0063794] (first compound 5 µM, partner dose 0.1 µM), which cell count is on record?
Answer: 84.3%

Question: For `O=C(CCCCCCC(=O)Nc1ccccc1)NO` [vorinostat] + C[C@@H]1CCN(C(=O)CC#N)C[C@@H]1N(C)c1ncnc2[nH]ccc12 [CP690550] (first compound 0.4 µM, partner dose 5 µM), which cell count is on record?
Answer: 87.2%

Source: the supplement of paper PMC4604168 (melanoma cell lines)
